Assay results as given in ChEMBL document CHEMBL5052851, “Mettl3 modulators” (2021).

Columns and labels:
MOLM-13 = assay: Antiproliferative activity against human MOLM-13 cells after 96 hrs by Cell Titer-Glo assay; type: functional, cell-based; conditions: MOLM-13, 96 h
[1] = target: N6-adenosine-methyltransferase catalytic subunit (Homo sapiens, UniProt Q86U44); assay: Inhibition of METTL3 (unknown origin) using UCUGGACUAAA-biotin and 3H-SAM as substrates preincubated for 5 mins followed by substrate addition incubated for 30 mins by TopCount scintillation counting method
Chain of UniProt Q86U44 (Q86U44 whole entry): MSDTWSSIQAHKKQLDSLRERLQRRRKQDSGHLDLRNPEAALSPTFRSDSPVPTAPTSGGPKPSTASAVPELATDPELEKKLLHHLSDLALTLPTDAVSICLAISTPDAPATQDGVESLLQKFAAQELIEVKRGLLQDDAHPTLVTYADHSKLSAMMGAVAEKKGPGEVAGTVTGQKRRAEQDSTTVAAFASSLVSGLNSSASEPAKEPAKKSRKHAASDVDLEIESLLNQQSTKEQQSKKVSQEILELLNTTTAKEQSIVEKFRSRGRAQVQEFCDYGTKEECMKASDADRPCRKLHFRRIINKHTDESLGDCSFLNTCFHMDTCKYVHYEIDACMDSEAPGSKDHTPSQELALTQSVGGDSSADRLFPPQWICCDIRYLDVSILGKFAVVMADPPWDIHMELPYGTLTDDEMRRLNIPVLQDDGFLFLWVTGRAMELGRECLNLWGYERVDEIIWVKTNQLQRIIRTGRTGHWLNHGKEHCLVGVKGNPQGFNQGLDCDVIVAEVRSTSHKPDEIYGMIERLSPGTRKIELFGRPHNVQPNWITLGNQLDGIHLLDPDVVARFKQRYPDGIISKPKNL

[2] = Inhibition of METTL16 (unknown origin) using CGAUACAGAGAAGAUUAGCAUACGCAAAUUCGUGAAGCG-biotin and SAM as substrates preincubated for 5 mins followed by substrate addition incubated for 220 mins by TopCount scintillation counting method; parameters: species or system Homo sapiens

Row | IC50 (MOLM-13) [nM] | IC50 [1] [nM] | IC50 [2] [nM] | Structure (SMILES)
1 | < 1000 | < 10 | – | CCc1cc(N2CCCC2)c2ccc(OCc3cncc(-n4ccc5c(N)ncnc54)c3)cc2n1
2 | < 1000 | < 10 | – | Cn1ccc(-c2cn(-c3cncc(COc4ccc5ccc(N6CC(N)C6)nc5c4)c3)c3ncnc(N)c23)n1
3 | 1000 | < 10 | – | Cn1ccc(-c2cn(-c3cncc(COc4ccc5ccc(N6CC(O)C6)nc5c4)c3)c3ncnc(N)c23)n1
4 | – | ≥ 1000 | ≥ 1000 | C=CC(=O)Nc1nc(N)c2ccn(-c3cncc(COc4ccc5ccc(NC)nc5c4)c3)c2n1
5 | < 1000 | < 10 | – | CCc1cc(N2CCOCC2)c2ccc(OCc3cncc(-n4cc([C@@H]5CCCO5)c5c(N)ncnc54)c3)cc2n1
6 | – | ≥ 1000 | ≥ 1000 | Nc1ccc2ccc(OCc3cccc(-n4cc(Cl)c5c(N)ncnc54)c3)cc2n1
7 | < 1000 | < 10 | – | CCc1cc(NCCOC)c2ccc(OCc3cncc(-n4cc([C@@H]5CCCO5)c5c(N)ncnc54)c3)cc2n1
8 | ≥ 10000 | < 10 | – | CC(=O)c1cn(-c2cncc(COc3ccc4ccc(N5CCC5)nc4c3)c2)c2ncnc(N)c12
9 | – | ≥ 1000 | ≥ 1000 | CNc1ccc2ccc(OCc3cncc(-n4ccc5c(N)nc(N(C)C)nc54)c3)cc2n1
10 | < 1000 | < 10 | – | CCc1cc(NCCCN(C)C)c2ccc(OCc3cncc(-n4cc(-c5ccn(C)n5)c5c(N)ncnc54)c3)cc2n1
11 | 1000 | < 10 | – | COCc1cn(-c2cncc(COc3ccc4ccc(N5CCC5)nc4c3)c2)c2ncnc(N)c12
12 | < 1000 | < 10 | – | CCc1cc(NCCOC)c2c(F)cc(OCc3cncc(-n4cc(COC)c5c(N)ncnc54)c3)cc2n1
13 | < 1000 | – | – | CCc1cc(N2CCOCC2)c2ccc(OCc3cncc(-n4cc([C@H]5CCCO5)c5c(N)ncnc54)c3)cc2n1
14 | – | ≥ 1000 | ≥ 1000 | CNc1ccc2ccc(OCc3cncc(-n4ccc5c(N)nc(NC)nc54)c3)cc2n1
15 | < 1000 | < 10 | – | CCc1cc(N2CCN(C)CC2)c2ccc(OCc3cncc(-n4ccc5c(N)ncnc54)c3)cc2n1
16 | – | ≥ 1000 | ≥ 1000 | CNc1ccc2ccc(OCc3nnc(-n4cc(Cl)c5c(N)ncnc54)s3)cc2n1
17 | – | ≥ 1000 | ≥ 1000 | CNc1ccc2ccc(CN(C)c3cccc(-n4cc(Br)c5c(N)ncnc54)c3)cc2n1
18 | < 1000 | < 10 | – | Cn1ccc(-c2cn(-c3cncc(COc4ccc5ccc(N6CC(F)C6)nc5c4)c3)c3ncnc(N)c23)n1
19 | < 1000 | < 10 | – | CCc1cc(NCCOC)c2c(F)cc(OCc3cncc(-n4cc(-c5ccn(C)n5)c5c(N)ncnc54)c3)cc2n1
20 | 1000 | < 10 | – | CCc1cc(OC)c2ccc(OCc3cncc(-n4cc([C@@H]5CCCO5)c5c(N)ncnc54)c3)cc2n1

Row | IC50 (MOLM-13) [nM] | IC50 [1] [nM] | IC50 [2] [nM] | Structure (SMILES)
21 | – | – | ≥ 1000 | CNc1ccc2ccc(OCc3cccc(-n4cc(C5CC5)c5c(N)ncnc54)c3)cc2n1
22 | – | – | ≥ 1000 | Nc1ncnc2c1c(Cl)cn2-c1cccc(COc2ccc3ccc(NCC4CC4)nc3c2)c1
23 | – | – | ≥ 1000 | CNc1ccc2ccc(OCc3cncc(-n4cc(CCN(C)C)c5c(N)ncnc54)c3)cc2n1
24 | – | – | ≥ 1000 | CNc1ccc2ccc(OCc3cncc(-n4cc(C5CCN(C)CC5)c5c(N)ncnc54)c3)cc2n1
25 | – | ≥ 1000 | ≥ 1000 | CNc1ccc2ccc(OCc3cc(-n4cc(Cl)c5c(N)ncnc54)ncn3)cc2n1
26 | – | – | ≥ 1000 | C[C@@H]1CCN1c1ccc2ccc(OCc3cncc(-n4cc(C5CCCC5)c5c(N)ncnc54)c3)cc2n1
27 | < 1000 | < 10 | – | CC(C)c1cc(N2CCC2)c2ccc(OCc3cncc(-n4ccc5c(N)ncnc54)c3)cc2n1
28 | < 1000 | < 10 | – | CCc1cc(N2CCOCC2)c2ncc(OCc3cncc(-n4cc(-c5ccn(C)n5)c5c(N)ncnc54)c3)cc2n1
29 | – | – | ≥ 1000 | Nc1ncnc2c1c(Cl)cn2-c1cncc(COc2ccc3ccc(N4CCCC4)nc3c2)c1
30 | < 1000 | < 10 | – | CCc1cc(NC)c2ccc(OCc3cncc(-n4cc(-c5ccn(CCOC)n5)c5c(N)ncnc54)c3)cc2n1
31 | – | – | ≥ 1000 | CNc1ccc2ccc(OCc3cncc(-n4ccc5c(N)nc(N)nc54)c3)cc2n1
32 | – | – | ≥ 1000 | CNc1ccc2ccc(OCc3ccnc(-n4cc(Cl)c5c(N)ncnc54)c3)cc2n1
33 | – | – | ≥ 1000 | CNc1ccc2ccc(CCc3cncc(-n4cc(Cl)c5c(N)ncnc54)c3)cc2n1
34 | – | ≥ 1000 | ≥ 1000 | CNc1ccc2ccc(OCc3cc(-n4cc(Cl)c5c(N)ncnc54)ccc3OC)cc2n1
35 | < 1000 | < 10 | – | CN(CCO)c1ccc2ccc(OCc3cncc(-n4cc(-c5ccn(C)n5)c5c(N)ncnc54)c3)cc2n1
36 | – | – | ≥ 1000 | CNc1ccc2ccc(OCc3cccc(-n4ccc5c(N)ncnc54)c3)cc2n1
37 | 1000 | < 10 | – | CCNc1ccc2ccc(CCc3cncc(-n4cc([C@H]5CCCO5)c5c(N)ncnc54)c3)cc2n1
38 | – | – | ≥ 1000 | Cc1cc(N)c2ccc(OCc3cccc(-n4cc(Cl)c5c(N)ncnc54)c3)cc2n1
39 | < 1000 | < 10 | – | CCNc1ccc2ccc(OCc3cncc(-n4cc([C@H]5CCCO5)c5c(N)ncnc54)c3)cc2n1
40 | < 1000 | < 10 | – | CCc1cc(NCCOC)c2ncc(CCc3cncc(-n4cc(-c5ccn(C)n5)c5c(N)ncnc54)c3)cc2n1

Row | IC50 (MOLM-13) [nM] | IC50 [1] [nM] | IC50 [2] [nM] | Structure (SMILES)
41 | – | – | ≥ 1000 | CNc1ccc2ccc(OCc3cccc(-n4cc(Cl)c5c(N)ncnc54)n3)cc2n1
42 | < 1000 | < 10 | – | CCc1cc(N(C)C2CC2)c2ccc(OCc3cncc(-n4cc([C@@H]5CCCO5)c5c(N)ncnc54)c3)cc2n1
43 | 1000 | – | – | CS(=O)(=O)c1cn(-c2cncc(COc3ccc4ccc(N5CCC5)nc4c3)c2)c2ncnc(N)c12
44 | < 1000 | < 10 | – | CCCc1cc(N)c2ccc(CCc3cncc(-n4cc(-c5ccn(C)n5)c5c(N)ncnc54)c3)cc2n1
45 | < 1000 | < 10 | – | CCc1cc(NCCOC)c2c(F)cc(CCc3cncc(-n4cc(-c5ccn(C)n5)c5c(N)ncnc54)c3)cc2n1
46 | < 1000 | < 10 | – | Nc1ncnc2c1c([C@H]1CCCO1)cn2-c1cncc(COc2ccc3ccc(N4CCC4)nc3c2)c1
47 | < 1000 | < 10 | – | CCc1cc(NCCOC)c2ncc(OCc3cncc(-n4cc([C@@H]5CCCO5)c5c(N)ncnc54)c3)cc2n1
48 | < 1000 | < 10 | – | CNc1ccc2ccc(OCc3cncc(-n4cc(C5CCCO5)c5c(N)ncnc54)c3)cc2n1 (stereo not drawn)
49 | – | ≥ 1000 | ≥ 1000 | C=CC(=O)N(CCC(=O)O)c1nc(N)c2ccn(-c3cncc(COc4ccc5ccc(NC)nc5c4)c3)c2n1
50 | – | – | ≥ 1000 | CNc1ccc2ccc(OCc3cccc(-n4cc(Br)c5c(N)ncnc54)c3)cc2n1
51 | – | – | ≥ 1000 | Cc1cc(N)c2ccc(OCc3cccc(-n4ccc5c(N)ncnc54)c3)cc2n1
52 | < 1000 | – | – | CCc1cc(N(C)C)c2ccc(OCc3cncc(-n4ccc5c(N)ncnc54)c3)cc2n1
53 | – | – | ≥ 1000 | Nc1ncnc2c1ccn2-c1cncc(COc2ccc3ccc(N4CCCC4)nc3c2)c1
54 | – | – | ≥ 1000 | CNc1ccc2ccc(OCc3cccc(-n4cc(CCN(C)C)c5c(N)ncnc54)c3)cc2n1
55 | – | – | ≥ 1000 | CNc1ccc2ccc(OCc3cc(-n4cc(Cl)c5c(N)ncnc54)cnc3N)cc2n1
56 | – | – | ≥ 1000 | CNc1ccc2ccc(OCc3cncc(-n4cc(C5CCCC5)c5cncnc54)c3)cc2n1
57 | – | – | ≥ 1000 | Cc1cc(N)c2ccc(OCc3cncc(-n4cc(Cl)c5c(N)ncnc54)c3)cc2n1
58 | – | – | ≥ 1000 | CNc1ccc2ccc(OCc3cccc(-n4ccc5c(N)ncnc54)c3F)cc2n1
